The other results are listed elsewhere or left out.

The assay relates to T1, Caupolican (Caup) homeodomain DNA-binding domain.
T1 sequence: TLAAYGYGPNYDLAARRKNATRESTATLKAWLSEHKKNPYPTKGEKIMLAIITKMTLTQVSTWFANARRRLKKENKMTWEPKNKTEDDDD
As to the kind of experiment: PBM E-score (8-mer, recovered from the published 9-mer minima) (E-score (dimensionless, -0.5 to 0.5)); Drosophila protein; higher = stronger relative binding preference, active = 0.31 or more. A digest of the protocol:
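Caup's homeodomain DNA-binding domain (residues 214-303) was produced by in vitro transcription and translation and applied at 100 nM to custom-designed protein binding microarrays. Each value is an enrichment score giving relative binding preference for a short DNA word; higher means stronger. Published 9-mer scores were the minimum of their two constituent 8-mer scores, and the 8-mer values were recovered from those minima. A cutoff of 0.31 marks candidate binding sequences.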
Regarding ATTTCTCA, the “PBM E-score” value was inactive: 0.0413.

Turning to TCAAATAA, the “PBM E-score” value was inactive: 0.152.

On to CATTTATC, for which the “PBM E-score” value is inactive: 0.103.

Take AACTCCCT: the “PBM E-score” value is inactive: -0.108. With ACAAAACC, the “PBM E-score” value is inactive: 0.0917. Next, GACAGATC: inactive: 0.0695; ACTCAATG: inactive: 0.124. Next, GTTTTATA: inactive: 0.13; ACGATTCT: inactive: 0.0871. Next, GAGGGTAA: inactive: -0.0695. For ACCTCGGG, the “PBM E-score” value was inactive: -0.143. Regarding ACTCCGAG, the “PBM E-score” value is inactive: -0.0336. Next, CGCCGTAC: inactive: -0.0654; GACGACCC: inactive: -0.0427; GCATCTAC: inactive: 0.0527.

For the sequence CTGCTCTC, the “PBM E-score” value is inactive: 0.0066. Next, AACAGAAG: inactive: 0.0837; GCGGGGCA: inactive: -0.224. Under CAGCTTTC stands inactive: -0.131; under CTACTCAA, inactive: 0.116.

Take AAGGCACC: the “PBM E-score” value is inactive: -0.126. Under CCGTGTAA stands active: 0.35. As for CCACAAGC, the “PBM E-score” value is inactive: -0.0871. For CAACGCCG, the “PBM E-score” value was inactive: -0.0702. Under ACTCAGTA stands inactive: 0.0624; under GACTCAGC, inactive: -0.117; under ACGTGTCA, active: ≥ 0.374. As to TCTGCGAA, the “PBM E-score” value is inactive: -0.0101.

With CGAGCAAG, the “PBM E-score” value was inactive: -0.0126. Under ACAGTTCT stands inactive: 0.0357; under GCGATTGA, inactive: -0.0316; under CTACGCGC, inactive: -0.137. Take TAAGGCCA: the “PBM E-score” value was inactive: -0.0926. As for GCGGTGAC, the “PBM E-score” value is inactive: -0.0727.

As to GGTCGCTA, the “PBM E-score” value was inactive: -0.0843. Regarding CCCCGCGG, the “PBM E-score” value is inactive: -0.21. Under AGGACGCA stands inactive: -0.0925; under ACCACTGC, inactive: -0.0739. Under TCGCTCCA stands ≥ -0.0697; under GCACAACA, inactive: 0.211; under AAGCTATG, inactive: -0.0119.

On to ACTCGGAT, for which the “PBM E-score” value was inactive: 0.0601. Next, AAGAGCAG: inactive: -0.0917. Under GATCGTCA stands inactive: 0.0677.

In the case of GGTTTATA, the “PBM E-score” value was inactive: 0.113. Next, GACTTCAA: inactive: 0.0353.

For AGCCCGAA, the “PBM E-score” value is inactive: -0.154.

CAAGTCGA: the “PBM E-score” value was inactive: 0.0142. On to CGCACGAA, for which the “PBM E-score” value is inactive: -0.0549. As to AGAGAACT, the “PBM E-score” value is inactive: -0.0403. Next, CCGGTGTC: inactive: 0.0381; ACAGCGTG: inactive: 0.156. Under ACTTGGTG stands inactive: -0.0142; under CATCATGG, inactive: -0.0399; under GCTTTTGA, inactive: -0.0513. Under CTCTTCAC stands inactive: -0.044; under CCATCGGC, inactive: -0.2; under AATAATCA, inactive: 0.145. Consider CACGTGAC, for which the “PBM E-score” value was inactive: 0.125.

On to CAATTAGA, for which the “PBM E-score” value is inactive: 0.0523. Next, GCCGGTTA: inactive: -0.0272. Next, GCACGAGA: inactive: -0.0905. As to AGCTCCAG, the “PBM E-score” value was inactive: -0.231. Regarding CATTTTAA, the “PBM E-score” value is inactive: 0.036.

With CCGCGATA, the “PBM E-score” value was inactive: -0.07. Next, AATCGCTC: inactive: -0.0884; CCGGTAGA: inactive: -0.0549. With ACCTATAT, the “PBM E-score” value is ≥ 0.132. With AGAGCACA, the “PBM E-score” value is inactive: 0.0054. Regarding CAACCAGG, the “PBM E-score” value is inactive: -0.0261.

Turning to ATCTACGA, the “PBM E-score” value was inactive: 0.0766.

For the sequence AAGTTATG, the “PBM E-score” value was inactive: 0.185. Next, ACGTGAGT: inactive: -0.00215; ACTGGGAA: inactive: -0.0105; GAAGTATC: inactive: 0.111. Under AGTTACCA stands inactive: 0.113; under CATGTGCA, inactive: 0.119; under AGCATGGC, inactive: -0.0367. Under ACGGAGGG stands inactive: -0.116.

Take CCTGTACA: the “PBM E-score” value is active: 0.32. In the case of GGTAAATA, the “PBM E-score” value was inactive: 0.0527. Next, CCAATTCA: inactive: 0.0663; CTTAAGTA: inactive: 0.0732; GCCATATA: inactive: 0.0416. ATACATAA: the “PBM E-score” value was active: 0.348. With CCACACAG, the “PBM E-score” value is inactive: -0.0418.

GCGGGATA: the “PBM E-score” value is inactive: -0.0601. Under AGGAGACG stands inactive: -0.0975. Next, CGCAAGAC: inactive: -0.181; CAGCGACG: inactive: -0.0731; AACGATGT: active: 0.35.

For the sequence CAGGCATG, the “PBM E-score” value was inactive: 0.027. Under AGCGATCC stands inactive: -0.00786; under AGCTCCCT, inactive: -0.171; under GCTCTGGA, inactive: -0.0411. Consider GTTACGTA, for which the “PBM E-score” value is inactive: 0.0824. On to CATAGAAA, for which the “PBM E-score” value is inactive: 0.122. Take GCTAGACC: the “PBM E-score” value is inactive: -0.158. Take AAGCGTAG: the “PBM E-score” value is inactive: -0.0786. Next, ATCGCCAG: inactive: -0.0646; ATAACCAG: inactive: 0.153. For the sequence CCAAAGAC, the “PBM E-score” value was inactive: -0.0508. With GACGCCCC, the “PBM E-score” value is inactive: -0.248. Next, CCAGATGC: inactive: -0.0207; ATTCTCTA: inactive: -0.014.

On to TAAGTCCA, for which the “PBM E-score” value is inactive: 0.0297.

For the sequence ACACAAGT, the “PBM E-score” value is inactive: 0.253. Consider TCGCCGAA, for which the “PBM E-score” value is inactive: -0.0752. Under CGTGTTTC stands inactive: 0.236.

For ATATCAGA, the “PBM E-score” value was inactive: 0.171.

In the case of TCCTCCGA, the “PBM E-score” value was inactive: -0.137.

(Values after the supplement of paper PMC3724861.)
